Reference: the RNAGym collection of RNA variant scans (doi:10.7554/elife.90254)
The source gives no read counts; variants with many changes may rest on few reads.

B1: LINE1-mini (parent)
chain: GGCAGAGCUCAACACAGCGUGGCAAAGUGGCUGUGGCUAGACUGCC

Variants of: B1
Assay: self-cleavage, relative activity (ratio to wild type); higher = more cleavage; in vitro, sequencing; the parent is a self-cleaving ribozyme

Variant	self-cleavage
U9C A11C A16C G27A	0.01
U9C A11C A24U U32G G35A	0.01
U9C A11C G21U G29A C45G	0.01
U9C A11G A25U G30U	0.03
U9C A11G C15A G22A U32A G44U	0.01
U9C A11G G44U	0.05
U9C A11U A12G C13U G29A G35C	0.01
U9C A11U A12G G19C U20C U38C U43C	0.01
U9C A11U A14C U34G	0.01
U9C A11U A25C	0.01
U9C A11U C13G G17C U20C C31A C42A	0
U9C A11U C23A G44A	0.01
U9C A11U U28A	0.01
U9C A12C G27U G29U	0.03
U9C A12C U28C C42G	0.01
U9C A12G A14C G22C C23A G30A C31U	0.01
U9C A12G A39U	0.01
U9C A12G G19U U32C	0.01
U9C A12G G33U	0.02
U9C A12G U20G U28C	0.01
U9C A12U A24U G35C U43C	0.02

Variant	self-cleavage
U9C A12U G19A A24C G36C C46G	0.01
U9C A12U G19U G22U C23U G30A	0.01
U9C A12U G21U G36C	0.02
U9C A12U G29A G30C C31A	0.01
U9C A12U G35U U43A C45U	0.01
U9C A14C A24U G40U	0.02
U9C A14C G29A	0.02
U9C A14C G33U C46A	0.01
U9C A14C U20G	0.02
U9C A14G A16G C23G A26G G36U A39G	0
U9C A14G A26C G30A U32A G36C	0.04
U9C A14G C18G A41U	0.05
U9C A14G C31A	0
U9C A14G C37U C42A C45A	0
U9C A14G C42A C46U	0.01
U9C A14U A16C G27U C37A	0.01
U9C A14U A16U G27U	0.05
U9C A14U C15U U34G	0.01
U9C A14U C45G C46U	0.01
U9C A16C A39C U43A	0
U9C A16C G17U	0.03

Variant	self-cleavage
U9C A16C G19A G35U G44A	0.01
U9C A16C G21A G27A G29U U43A	0.01
U9C A16C G27C G35C C37A	0.1
U9C A16C U32A	0.01
U9C A16G C18G U20A A26G C37U G44A	0
U9C A16G C18U G40C	0.04
U9C A16G C23A	0.04
U9C A16G G35A	0.02
U9C A16G G35U G36A G40U	0.01
U9C A16G G40U	0.01
U9C A16U C45G	0.02
U9C A16U U34G C37U	0.02
U9C A24C A25G A26G	0.01
U9C A24C G36C A39U	0.01
U9C A24G C31G	0.02
U9C A24U G44U	0.01
U9C A24U U34A G36C A41U	0.01
U9C A25C G35A G36U	0.05
U9C A25G G44A	0.07
U9C A25U A41G	0.04
U9C A26C C45A	0.03

Variant	self-cleavage
U9C A26C G29C G30C G33C U34C G44U C45A	0
U9C A39C A41C	0.08
U9C A41C G44U	0.04
U9C A41G C45A	0.03
U9C C10A A11C U20G A25U U28C U32C G36A C37G	0
U9C C10A A14C	0.05
U9C C10A C15G C42G	0.03
U9C C10A G22U A24C U28C G35C G36A A41C C42A	0.01
U9C C10A G27U A41U	0.02
U9C C10A G30A C37U	0.03
U9C C10A G35A	0.03
U9C C10A G40U	0.08
U9C C10G A26C	0
U9C C10G C13A G35U	0.01
U9C C10G C15U U20C A25U C31G G33U G44C	0.01
U9C C10G G21C	0.02
U9C C10G G21U G27A G30C U32A	0.01
U9C C10G U32C U34G A41C	0.03
U9C C10G U43A	0
U9C C10U A12U C42U	0.01
